Test results taken from the supplement of paper PMC10723795.
Where a name gives a salt, the structure may show the parent alone. This is one part of the list.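 How the source made its calls: active = more than 2 SD below the DMSO mean: under 0.85 at 10 µM or 0.885 at 1 µM; inactive = the rest.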 Repeats are few or missing, and single values can be far off.

Test system: RPE1
Assay: nucleolar normality score relative to DMSO (fraction of DMSO control); RPE1 is a non-cancer human cell line; higher = more normal nucleoli (less nucleolar stress)
Conditions: 24 h
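Further: fixed cells immunolabelled for nucleolin and UBF, 40 image fields per well in 384-well plates, per-cell score = nucleolin nucleolar/nucleoplasm intensity ratio divided by the matching UBF ratio.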

Compound	nucleolar normality score (1 µM)	nucleolar normality score (10 µM)
NC(=O)c1cc(F)cc2c1C(=O)N(C1CCN(C3CCC(F)(F)CC3)CC1)C2	inactive: 1.05	inactive: 1.01
CC(C)=CCC[C@](C)(O[C@@H]1O[C@H](CO)[C@@H](O)[C@H](O)[C@H]1O)[C@H]1CC[C@]2(C)[C@@H]1[C@H](O)C[C@@H]1[C@@]3(C)CC[C@H](O)C(C)(C)[C@@H]3[C@@H](O[C@@H]3O[C@H](CO)[C@@H](O)[C@H](O)[C@H]3O)C[C@]12C [Ginsenoside Rg1]	inactive: 1.02	inactive: 0.861
COc1cc2/c(=N/c3ccc(Br)cc3F)nc[nH]c2cc1OCC1CCN(C)CC1 [Vandetanib (ZD6474)]	inactive: 1.05	inactive: 1.01
O=C1C(=Cc2cccnc2)C(=O)c2ccccc21	inactive: 0.945	inactive: 0.997
CCN(CC)C(=S)SSC(=S)N(CC)CC [Disulfiram]	inactive: 0.931	inactive: 0.971
O=C(CCCCCN1C(=O)c2cccc3cccc(c23)C1=O)NO [Scriptaid]	inactive: 1	inactive: 1.04
O=C(O)C(Cc1c[nH]c2ccccc12)N1C(=O)c2ccccc2C1=O (stereo unspecified)	inactive: 0.985	inactive: 1.07
Cc1cc(C(=O)Nc2nc3cccc(Cl)c3n2[C@@H]2CCCCN(C(=O)/C=C/CN(C)C)C2)ccn1 [Nazartinib (EGF816, NVS-816)]	inactive: 1.06	inactive: 1.06
CC#CC(=O)Nc1ccc2ncnc(Nc3cccc(Br)c3)c2c1	inactive: 0.946	inactive: 0.868
Cc1nc2cccc(N)c2c(=O)n1C1CCC(=O)NC1=O (stereo unspecified) [Avadomide(CC-122)]	inactive: 1.01	inactive: 1.07
COc1cc(F)c(F)c(Nc2ccc(I)cc2F)c1NS(=O)(=O)C1(C[C@H](O)CO)CC1 [Refametinib (RDEA119, Bay 86-9766)]	inactive: 1.04	inactive: 1.06
CS(=O)(=O)N1CCN(Cc2cc3nc(-c4cccc5[nH]ncc45)nc(N4CCOCC4)c3s2)CC1 [Pictilisib (GDC-0941)]	inactive: 0.938	inactive: 0.972
NCCSSCCN [Cystamine dihydrochloride]	inactive: 1.04	inactive: 0.928
CC(=O)OCC(=O)[C@@]1(O)[C@H](C)C[C@H]2[C@@H]3CCC4=CC(=O)C=C[C@]4(C)[C@@]3(F)[C@@H](O)C[C@@]21C [Dexamethasone Acetate]	inactive: 1.11	inactive: 1.09
Nc1nc2cc(-c3ccc4ncc(C(=O)N5CCOCC5)n4c3)ccc2o1 [Serabelisib (INK-1117,MLN-1117,TAK-117)]	inactive: 0.979	inactive: 0.995
COc1c(N2C[C@@H]3CCCN[C@@H]3C2)c(F)cc2c(=O)c(C(=O)O)cn(C3CC3)c12 [Moxifloxacin]	inactive: 1.01	inactive: 1
NCCCC[C@@H]1NC(=O)[C@@H](Cc2ccccc2)NC(=O)[C@H](CC(=O)O)NC(=O)CNC(=O)[C@H](CCCN=C(N)N)NC1=O [Cyclo (-RGDfK)]	inactive: 1.02	inactive: 1.03
c1cc(-c2cnn3cc(-c4ccc(N5CCNCC5)cc4)cnc23)c2cccnc2c1	inactive: 0.947	inactive: 1.09
Cc1n[nH]c2ncc(C(=O)N3CCC[C@H]3c3ccc(Cl)cc3)cc12	inactive: 1.06	inactive: 1.04
C=C1CC2(O)OC3(CC2C(C)C)C(C)CCC13 (stereo unspecified) [Curcumol]	inactive: 1.02	inactive: 0.888

Compound	nucleolar normality score (1 µM)	nucleolar normality score (10 µM)
Cn1c(=O)cc(C(=O)Nc2ccc3c(c2)OCCO3)c2ccccc21	inactive: 0.994	inactive: 1.04
CNC(=O)c1ccccc1Nc1nc(Nc2ccc(N3CCOCC3)cc2OC)ncc1Cl	inactive: 1.08	inactive: 1.08
CC1=C(C(=O)Nc2cc3cn[nH]c3cc2F)C(c2ccc(C(F)(F)F)cc2)CC(=O)N1 (stereo unspecified)	inactive: 1	inactive: 1.05
O=NN(CCCl)C(=O)NCCCl [Carmustine]	inactive: 0.932	inactive: 0.983
CC(=O)c1cc2c(o1)C(=O)c1ccccc1C2=O [Napabucasin]	active: 0.466	active: 0.373
O=c1oc2c(O)c(O)cc3c(=O)oc4c(O)c(O)cc1c4c23 [Ellagic acid]	inactive: 1.05	inactive: 1.12
CNC(=O)c1ccccc1Nc1cc(Nc2ccc(N3CCOCC3)cc2OC)ncc1C(F)(F)F	inactive: 0.913	inactive: 1.02
CNC(=O)c1cc(Oc2ccc(NC(=O)Nc3ccc(Cl)c(C(F)(F)F)c3)cc2)ccn1 [Sorafenib Tosylate]	inactive: 1.07	inactive: 1.12
COc1cccc2c1C(=O)c1c(O)c3c(c(O)c1C2=O)C[C@@](O)(C(C)=O)C[C@@H]3O[C@H]1C[C@H](N)[C@H](O)[C@H](C)O1 [Daunorubicin HCl]	active: 0.235	active: 0.403
Cc1ccc(S(=O)(=O)Cc2nc(-c3ccc(C(=O)NCc4cccnc4)cc3)oc2C)cc1	inactive: 1.02	inactive: 1.02
CC/C(=C(\c1ccc(O)cc1)c1ccc(OCCNC)cc1)c1ccccc1 [Endoxifen HCl]	inactive: 0.988	inactive: 1.04
C=C1CC[C@@H]2[C@](C)(CO)[C@H](O)CC[C@@]2(C)[C@@H]1C/C=C1/C(=O)OC[C@H]1O [Andrographolide]	inactive: 1.06	inactive: 1.15
Cc1ncc(-c2ccnc(Nc3ccc(S(C)(=O)=O)cc3)n2)n1C(C)C	inactive: 1.07	inactive: 0.885
Cc1ccc2nc(CN(CCN(Cc3nc4ccc(C)cc4[nH]3)Cc3nc4ccc(C)cc4[nH]3)Cc3nc4ccc(C)cc4[nH]3)[nH]c2c1	inactive: 0.963	inactive: 0.936
N#CCNC(=O)c1ccc(-c2ccnc(Nc3ccc(N4CCOCC4)cc3)n2)cc1 [Momelotinib (CYT387)]	inactive: 0.979	inactive: 1.06
Cc1ccc(C(=O)Nc2ccc(Oc3cc4cnn(C)c4cc3-c3cn[nH]c3)c(F)c2)c(=O)n1-c1ccc(F)cc1	inactive: 0.937	active: 0.82
O=C(/C=C/c1ccc(O)cc1)c1ccc(O)cc1O [Isoliquiritigenin]	inactive: 1.07	inactive: 1.06
N#Cc1ccc(-c2csc(NN=C3CCCC3)n2)cc1 [Remodelin]	inactive: 1.02	inactive: 1.08
CS(=O)(=O)OCCCCOS(C)(=O)=O [Busulfan]	inactive: 1.04	inactive: 1.09
C=CC(C)(C)c1cc(C=CC(=O)c2ccc(O)cc2)c(OC)cc1O [Licochalcone A]	inactive: 1.01	inactive: 1.07

Compound	nucleolar normality score (1 µM)	nucleolar normality score (10 µM)
CN1CCc2c(c3ccccc3n2Cc2ccc(C(=O)NO)cc2)C1 [Tubastatin A]	inactive: 0.978	inactive: 1.02
CN1CCc2c(c3ccccc3n2Cc2ccc(C(=O)NO)cc2)C1 [Tubastatin A HCl]	inactive: 1.07	inactive: 1.11
Cc1c(CN2CCN(C(=O)[C@H](C)O)CC2)sc2c(N3CCOCC3)nc(-c3cnc(N)nc3)nc12 [Apitolisib (GDC-0980, RG7422)]	active: 0.564	active: 0.425
CC(C)(CO)c1cc2cc(NC(=O)C3(c4ccc5c(c4)OC(F)(F)O5)CC3)c(F)cc2n1C[C@@H](O)CO	inactive: 1.05	inactive: 1.05
COc1cc2nccc(Oc3ccc(NC(=O)NC4CC4)c(Cl)c3)c2cc1C(N)=O [Lenvatinib (E7080)]	inactive: 0.945	inactive: 1.05
COc1cc2nccc(Oc3ccc(NC(=O)NC4CC4)c(Cl)c3)c2cc1C(N)=O [lenvatinib Mesylate]	inactive: 1	inactive: 1.07
c1nc2c(NC3CCCCC3)nc(Nc3ccc(N4CCOCC4)cc3)nc2[nH]1 [Reversine]	inactive: 0.934	active: 0.783
CNc1cc(-c2cccc(Cl)c2Cl)nc(N)n1	inactive: 1.08	inactive: 1.07
COc1nc(OCc2cccc(-c3ccccc3)c2C)ccc1CNCCNC(C)=O [BMS202 (PD-1/PD-L1 inhibitor 2)]	inactive: 1.03	inactive: 1.09
O=C(Nc1ccncc1)c1cc([N+](=O)[O-])ccc1Cl	inactive: 1.08	inactive: 0.928
CC(C)(O)CNc1ncc(-c2ccnc(Nc3ccnc(Cl)c3)n2)c(CC2CC2)n1	inactive: 1.03	inactive: 1.02
Cn1c(-c2ccccc2C(F)(F)F)nnc1C12CCC(c3noc(C4CC(F)(F)C4)n3)(CC1)CC2	inactive: 0.977	inactive: 1.01
COc1cc2c(c(OC)c1OC)-c1c(cc(OC)c(OC)c1OC)C[C@H](C)[C@H](C)C2 [Schisandrin A]	inactive: 1.07	inactive: 1.09
CCN1CCN(Cc2ccc(C(=O)Nc3ccc(C)c(Oc4ccc5c(c4)CC(=O)N5)c3)cc2C(F)(F)F)CC1	inactive: 1	inactive: 1.11
Cc1cc(CN2CCN(c3c(Br)cnc4nc(-c5ccc(N6CCN(C)CC6)cc5)[nH]c34)CC2)no1	inactive: 0.969	inactive: 0.937
O=C(Oc1cc(S(=O)(=O)c2ccccc2)ccc1[N+](=O)[O-])c1ccc(Cl)cc1	inactive: 0.935	inactive: 1.02
COc1ccc(-n2c(SCCCN3C(=O)c4cccc5cccc(c45)C3=O)nnc2-c2ccncc2)cc1	inactive: 0.927	inactive: 1.03
Cc1cccc(CC(=O)N2CCc3c2ccc(-c2cn(C)c4ncnc(N)c24)c3F)n1	inactive: 1.03	inactive: 1.06
